Experimental data published in patent US11807625B2, “Capsid inhibitors for the prevention of HIV” (Gilead Sciences, Inc., priority 2019, dated 2023).
“And” between values parts separate entries of the source, which are not always exact repeats. Equal entries are not always repeated. This continues a long series; more values of the same kind are listed elsewhere.

Assay: PK of compound of Formula (Ia) after single subcutaneous dose of solution formulations in Wistar Han rats
Assay type: in vivo
Details: SC 50 mg/kg
Description: Formulations containing the compound of Formula (Ia), or a pharmaceutically acceptable salt thereof, were prepared as solutions and optionally administered subcutaneously or intramuscularly to rats, rabbits, and/or dogs.
(§1) A solution of about 400 mg/mL of the compound of Formula (Ia) having 19.14 w/w % water, 40.66 w/w % PEG 300, 35.20 w/w % of a sodium salt of a compound of Formula (Ia), and 5.00% ethanol was prepared. The solution was administered subcutaneously to male Wistar Han rats at a dose level of about 50 mg/kg and dose volume of 0.125 mL/kg and the pharmacokinetic (PK) profile was determined.
as §1, with “500” for “400”, “16.64” for “19.14”, “35.36” for “40.66”, “43.00” for “35.20”, “0.1” for “0.125”
(§2) A solution of about 400 mg/mL of the compound of Formula (Ia) having 17.00 w/w % water, 36.40 w/w % PEG 300, 35.20 w/w % of a sodium salt of a compound of Formula (Ia), 5.00 w/w % ethanol, and 6.40 w/w % poloxamer 188 was prepared. The solution was administered subcutaneously to male beagle dogs at a dose level of about 12 mg/kg and male Wistar Han rats at a dose level of about 50 mg/kg. The pharmacokinetic profiles were determined, and the results for dogs are summarized in Table and Table, while the results for rats are summarized in Table and Table below.
as §2, with “500” for “400”, “14.06” for “17.00”, “30.12” for “36.40”
A solution of about 300 mg/mL of the compound of Formula (Ia) having 23.33 w/w % water, 48.99 w/w % PEG 300, 26.47 w/w % of a sodium salt of a compound of Formula (Ia), and 1.21 w/w % poloxamer 188 was prepared. The solution was administered subcutaneously to male beagle dogs at a dose level of about 6 mg/kg and male Wistar Han rats at a dose level of about 50 mg/kg. The pharmacokinetic profiles were determined, and the results for dogs are summarized in Table and Table, while the results for rats are summarized in Table and Table below.
as §2, with “18.80” for “17.00”, “40.25” for “36.40”, “34.38” for “35.20”, “1.57” for “6.40”
as §2, with “500” for “400”, “16.29” for “17.00”, “34.88” for “36.40”, “41.92” for “35.20”, “1.91” for “6.40”
A solution of about 400 mg/mL of the compound of Formula (Ia) having 20.90 w/w % water, 44.72 w/w % PEG 300, and 34.38 w/w % of a sodium salt of a compound of Formula (Ia) was prepared. […]

Question: For `CC(C)(C#Cc1ccc(-c2ccc(Cl)c3c(NS(C)(=O)=O)nn(CC(F)(F)F)c23)c([C@H](Cc2cc(F)cc(F)c2)NC(=O)Cn2nc(C(F)(F)F)c3c2C(F)(F)[C@@H]2C[C@H]32)n1)S(C)(=O)=O` [compound of Formula (Ia)], which Plasma concentration (5376 h, individual rats, solution U, 500 mg/mL) is on record?
Answer: Its Plasma concentration is 30.0 nM and 66.5 nM and 26.3 nM and 33.2 nM and 38.7 nM.

Question: What about the Plasma concentration (6048 h, individual rats, solution S, 500 mg/mL) of the same compound?
Answer: Its Plasma concentration is 32.6 nM and 75.5 nM and 27.0 nM.

Question: What about the Plasma concentration (6048 h, individual rats, solution T, 400 mg/mL) of the same compound?
Answer: Its Plasma concentration is 14.9 nM and 40.8 nM and 16.9 nM and 43.4 nM.

Question: And the Plasma concentration (6048 h, individual rats, solution U, 500 mg/mL)?
Answer: Its Plasma concentration is 30.8 nM and 60.0 nM and 18.5 nM and 30.4 nM and 41.5 nM.

Question: What about the Plasma concentration (6720 h, individual rats, solution S, 500 mg/mL) of the same compound?
Answer: Its Plasma concentration is 24.0 nM and 64.9 nM and 22.0 nM.

Question: And the Plasma concentration (6720 h, individual rats, solution T, 400 mg/mL)?
Answer: The Plasma concentration was 10.5 nM and 33.3 nM and 8.92 nM and 33.4 nM.

Question: And the Plasma concentration (6720 h, individual rats, solution U, 500 mg/mL)?
Answer: The Plasma concentration was 22.7 nM and 49.9 nM and 13.5 nM and 22.8 nM and 23.8 nM.

Question: And the Plasma concentration (7392 h, individual rats, solution S, 500 mg/mL)?
Answer: Its Plasma concentration is 13.8 nM and 56.8 nM and 17.5 nM.

Question: What about the Plasma concentration (8064 h, individual rats, solution S, 500 mg/mL) of the same compound?
Answer: Its Plasma concentration is 10.4 nM and 49.5 nM and 14.5 nM.

Question: And the Plasma concentration (Wistar Han rats, 400 mg/mL solution AA (6.25% poloxamer 188), 1.00 h, animals #1-#4)?
Answer: Its Plasma concentration is 36.7 nM and 45.6 nM and 32.4 nM.

Question: What about the Plasma concentration (Wistar Han rats, 400 mg/mL solution AA (6.25% poloxamer 188), 3.00 h, animals #1-#4) of the same compound?
Answer: The Plasma concentration was 61.1 nM and 94.5 nM and 54.3 nM.

Question: And the Plasma concentration (Wistar Han rats, 400 mg/mL solution AA (6.25% poloxamer 188), 8.00 h, animals #1-#4)?
Answer: Its Plasma concentration is 102 nM and 159 nM and 119 nM.

Question: And the Plasma concentration (Wistar Han rats, 400 mg/mL solution AA (6.25% poloxamer 188), 24.0 h, animals #1-#4)?
Answer: Its Plasma concentration is 163 nM and 281 nM and 228 nM.

Question: What about the Plasma concentration (Wistar Han rats, 400 mg/mL solution AA (6.25% poloxamer 188), 48.0 h, animals #1-#4) of the same compound?
Answer: The Plasma concentration was 174 nM and 310 nM and 246 nM.

Question: And the Plasma concentration (Wistar Han rats, 400 mg/mL solution AA (6.25% poloxamer 188), 72.0 h, animals #1-#4)?
Answer: The Plasma concentration was 144 nM and 267 nM and 265 nM.

Question: And the Plasma concentration (Wistar Han rats, 400 mg/mL solution AA (6.25% poloxamer 188), 96.0 h, animals #1-#4)?
Answer: Its Plasma concentration is 130 nM and 238 nM and 226 nM.

Question: And the Plasma concentration (Wistar Han rats, 400 mg/mL solution AA (6.25% poloxamer 188), 672 h, animals #1-#4)?
Answer: Its Plasma concentration is 93.1 nM and 141 nM and 105 nM.

Question: And the Plasma concentration (Wistar Han rats, 400 mg/mL solution AA (6.25% poloxamer 188), 840 h, animals #1-#4)?
Answer: Its Plasma concentration is 92.9 nM and 122 nM and 87.7 nM.

Question: And the Plasma concentration (Wistar Han rats, 400 mg/mL solution AA (6.25% poloxamer 188), 1008 h, animals #1-#4)?
Answer: Its Plasma concentration is 92.1 nM and 120 nM and 67.1 nM.

Question: And the Plasma concentration (Wistar Han rats, 400 mg/mL solution AA (6.25% poloxamer 188), 1344 h, animals #1-#4)?
Answer: Its Plasma concentration is 79.3 nM and 88.8 nM and 47.2 nM.

Question: And the Plasma concentration (Wistar Han rats, 400 mg/mL solution W (5.00% ethanol, 1.57% poloxamer 188), 24.0 h, animals #1-#3)?
Answer: The Plasma concentration was 90.1 nM and 144 nM.

Question: What about the Plasma concentration (Wistar Han rats, 400 mg/mL solution W (5.00% ethanol, 1.57% poloxamer 188), 48.0 h, animals #1-#3) of the same compound?
Answer: The Plasma concentration was 127 nM and 201 nM.

Question: What about the Plasma concentration (Wistar Han rats, 400 mg/mL solution W (5.00% ethanol, 1.57% poloxamer 188), 72.0 h, animals #1-#3) of the same compound?
Answer: The Plasma concentration was 169 nM and 176 nM.

Question: And the Plasma concentration (Wistar Han rats, 400 mg/mL solution W (5.00% ethanol, 1.57% poloxamer 188), 96.0 h, animals #1-#3)?
Answer: Its Plasma concentration is 150 nM and 164 nM.

Question: And the Plasma concentration (Wistar Han rats, 400 mg/mL solution W (5.00% ethanol, 1.57% poloxamer 188), 168 h, animals #1-#3)?
Answer: The Plasma concentration was 121 nM and 154 nM.

Question: And the Plasma concentration (Wistar Han rats, 400 mg/mL solution W (5.00% ethanol, 1.57% poloxamer 188), 336 h, animals #1-#3)?
Answer: Its Plasma concentration is 166 nM and 224 nM.

Question: And the Plasma concentration (Wistar Han rats, 400 mg/mL solution W (5.00% ethanol, 1.57% poloxamer 188), 504 h, animals #1-#3)?
Answer: The Plasma concentration was 228 nM and 321 nM.

Question: What about the Plasma concentration (Wistar Han rats, 400 mg/mL solution W (5.00% ethanol, 1.57% poloxamer 188), 672 h, animals #1-#3) of the same compound?
Answer: The Plasma concentration was 239 nM and 328 nM.

Question: And the Plasma concentration (Wistar Han rats, 400 mg/mL solution W (5.00% ethanol, 1.57% poloxamer 188), 840 h, animals #1-#3)?
Answer: The Plasma concentration was 283 nM and 313 nM.

Question: And the Plasma concentration (Wistar Han rats, 400 mg/mL solution W (5.00% ethanol, 1.57% poloxamer 188), 1008 h, animals #1-#3)?
Answer: Its Plasma concentration is 239 nM and 302 nM.

Question: And the Plasma concentration (Wistar Han rats, 400 mg/mL solution W (5.00% ethanol, 1.57% poloxamer 188), 1344 h, animals #1-#3)?
Answer: Its Plasma concentration is 284 nM and 370 nM.

Question: What about the Plasma concentration (Wistar Han rats, 400 mg/mL solution W (5.00% ethanol, 1.57% poloxamer 188), 1680 h, animals #1-#3) of the same compound?
Answer: The Plasma concentration was 242 nM and 335 nM.

Question: What about the Plasma concentration (Wistar Han rats, 400 mg/mL solution W (5.00% ethanol, 1.57% poloxamer 188), 2016 h, animals #1-#3) of the same compound?
Answer: Its Plasma concentration is 193 nM and 247 nM.

Question: And the Plasma concentration (Wistar Han rats, 400 mg/mL solution W (5.00% ethanol, 1.57% poloxamer 188), 2352 h, animals #1-#3)?
Answer: The Plasma concentration was 144 nM and 179 nM.

Question: What about the Plasma concentration (Wistar Han rats, 400 mg/mL solution W (5.00% ethanol, 1.57% poloxamer 188), 2688 h, animals #1-#3) of the same compound?
Answer: Its Plasma concentration is 135 nM and 214 nM.

Question: What about the Plasma concentration (Wistar Han rats, 400 mg/mL solution W (5.00% ethanol, 1.57% poloxamer 188), 3024 h, animals #1-#3) of the same compound?
Answer: The Plasma concentration was 106 nM and 143 nM.

Question: What about the Plasma concentration (Wistar Han rats, 400 mg/mL solution W (5.00% ethanol, 1.57% poloxamer 188), 3360 h, animals #1-#3) of the same compound?
Answer: The Plasma concentration was 90.5 nM and 144 nM.

Question: What about the Plasma concentration (Wistar Han rats, 400 mg/mL solution W (5.00% ethanol, 1.57% poloxamer 188), 3696 h, animals #1-#3) of the same compound?
Answer: The Plasma concentration was 76.3 nM and 112 nM.
